Results as given in PMC7819943, “Rice protein-binding microarrays: a tool to detect cis-acting elements near promoter regions in rice”.
The other results are listed elsewhere or left out.

biological target: T1, OsWOX13 (Oryza sativa, UniProt Q5QMM3 1-267); experiment: protein-binding microarray (RPBM); PBS, 2% BSA, 51.3 ng/ul salmon testes DNA, 50 uM zinc acetate, 200 nM TF, 25 C, 1 h; high values mean tight binding; settings: protein: recombinant; tags: N-terminal polyhistidine and DsRed monomer fusion (pET32a); label: CyDye5-dUTP incorporated in the synthesized complementary strand; 3' TTTTT single-stranded linker to array surface; dsDNA, one strand shown
T1 sequence: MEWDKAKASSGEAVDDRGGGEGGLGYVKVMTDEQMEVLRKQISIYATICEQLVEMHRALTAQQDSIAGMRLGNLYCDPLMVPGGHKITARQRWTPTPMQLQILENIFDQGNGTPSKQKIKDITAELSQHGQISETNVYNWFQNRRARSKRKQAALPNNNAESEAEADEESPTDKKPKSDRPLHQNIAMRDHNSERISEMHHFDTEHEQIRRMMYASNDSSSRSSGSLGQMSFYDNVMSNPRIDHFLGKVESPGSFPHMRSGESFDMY
Method in brief: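 In PBS with 2% BSA, salmon testes DNA and 50 µM zinc acetate, 200 nM protein was incubated on a custom Agilent array at 25 °C for 1 h and then washed off. The array had been made double-stranded by primer extension with Cy5-dUTP and blocked with 2% BSA. The proteins were transcription factors fused N-terminally to polyhistidine and DsRed, expressed in E. coli BL21-CodonPlus and purified on Ni–NTA. The binding signal is per-feature fluorescence intensity (arbitrary units) from an Axon 4000B scanner.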

Question: With “TCTCTTCCTTGCTGTGGTGGCGGCGGGCGGGAGGGCGGCGCGGAGTCACCTAGTGCAG” as the sequence, how does the binding signal read?
Answer: 12700 fluorescence intensity (a.u.)

Question: With “TTATACAACTGATTATCTATTGGCTCTTGTTTTAATTACTCGGAGTCACCTAGTGCAG” as the sequence, how does the binding signal read?
Answer: 8100 fluorescence intensity (a.u.)

Question: Which binding signal does the source give for “TAACAACTCTGTCAATTAGGCTAGATCAATTATAGTTCATCGGAGTCACCTAGTGCAG” here?
Answer: 12200 fluorescence intensity (a.u.)

Question: With “TCCCTATTAGAAATCTAATCAAGCATCTCTGAATTCCATCCGGAGTCACCTAGTGCAG” as the sequence, how does the binding signal read?
Answer: 5830 fluorescence intensity (a.u.)

Question: With “AAACTAATTGCATAAATGAGAGCTAATCCACAAGACAAATCGGAGTCACCTAGTGCAG” as the sequence, how does the binding signal read?
Answer: 33300 fluorescence intensity (a.u.)

Question: With “GATTTCGCAATCCAATTAATACATTAAAATCCTCAACCACCGGAGTCACCTAGTGCAG” as the sequence, how does the binding signal read?
Answer: 3500 fluorescence intensity (a.u.)

Question: “CAATTTGATTGGTCGATACAAGTTACCGTGCCGGCTGCATCGGAGTCACCTAGTGCAG” was tested. Which binding signal did it give?
Answer: 43700 fluorescence intensity (a.u.)

Question: How did the binding signal turn out when “ACACGTACATAATTTCTTTTAAAAGAAATATCTGGAGGGACGGAGTCACCTAGTGCAG” was run?
Answer: 3850 fluorescence intensity (a.u.)

Question: With “ACGCTAATCAGCGTGATTATCAAATACTGTACTACTAACACGGAGTCACCTAGTGCAG” as the sequence, how does the binding signal read?
Answer: 34200 fluorescence intensity (a.u.)

Question: How did the binding signal turn out when “ACTGACAGGAGGCGTGGAGTTGTTGAGGTACTACTTTTATCGGAGTCACCTAGTGCAG” was run?
Answer: 3660 fluorescence intensity (a.u.)

Question: “ATGCCCCATTTAATTGCCTGTTGGGTGACAATTATGGAATCGGAGTCACCTAGTGCAG” was tested. Which binding signal did it give?
Answer: 7940 fluorescence intensity (a.u.)

Question: Which binding signal does the source give for “TCTTATTGATTGCAGAATCAAATCAACAGGCACGCTCACGCGGAGTCACCTAGTGCAG” here?
Answer: 42400 fluorescence intensity (a.u.)

Question: For “GATTTTAAATCGTTTGATTTGCTTTAAAATTTATGCAAAGCGGAGTCACCTAGTGCAG”, which binding signal is on record?
Answer: 3560 fluorescence intensity (a.u.)

Question: For “TGTCACCTTAATTGATGCTTCCTACCTGTTAGATCCAATGCGGAGTCACCTAGTGCAG”, which binding signal is on record?
Answer: 35500 fluorescence intensity (a.u.)

Question: “CACTGCACCTGACAGACAGATCAAGGAGATAACCGGACTACGGAGTCACCTAGTGCAG” was tested. Which binding signal did it give?
Answer: 3180 fluorescence intensity (a.u.)

Question: For “GCCTTGATCAGACTGGAACATCGCACATGATGTGCTCATGCGGAGTCACCTAGTGCAG”, which binding signal is on record?
Answer: 3780 fluorescence intensity (a.u.)

Question: With “GATGAGATTGGCGCCACGGGACCGGAACCTTTCAACGGTCCGGAGTCACCTAGTGCAG” as the sequence, how does the binding signal read?
Answer: 6320 fluorescence intensity (a.u.)

Question: Which binding signal does the source give for “AACTTAATTAAATTTAAAGCAGTTTGATTTTGACTAAAGTCGGAGTCACCTAGTGCAG” here?
Answer: 31800 fluorescence intensity (a.u.)

Question: “TTCATTTGGTTTGGTTAATTATAAATTGGATATATACCAGCGGAGTCACCTAGTGCAG” was tested. Which binding signal did it give?
Answer: 11400 fluorescence intensity (a.u.)

Question: How did the binding signal turn out when “TTCGATAATGGAATTCAATCTAGCCTCTACGACGGGCCGGCGGAGTCACCTAGTGCAG” was run?
Answer: 13300 fluorescence intensity (a.u.)

Question: “ATAATCAATCTAATAGCTCATTCATTCATACAATAGTTAGCGGAGTCACCTAGTGCAG” was tested. Which binding signal did it give?
Answer: 24200 fluorescence intensity (a.u.)

Question: Which binding signal does the source give for “ATAAATTTTCGTTACCGTATTCACGCCGGTTCGTTTTCACCGGAGTCACCTAGTGCAG” here?
Answer: 6510 fluorescence intensity (a.u.)

Question: With “ACCTGCTTCCTTAATTAACTCCTTTCCGTCCTTTGTACTTCGGAGTCACCTAGTGCAG” as the sequence, how does the binding signal read?
Answer: 9150 fluorescence intensity (a.u.)

Question: Which binding signal does the source give for “GTAAATTTGACAAGATAAGATGTGGTGGCAAGTTTTAATACGGAGTCACCTAGTGCAG” here?
Answer: 3150 fluorescence intensity (a.u.)

Question: Which binding signal does the source give for “AAATTATTAATTATTTTATTTGTGACTTACTTTATTATCTCGGAGTCACCTAGTGCAG” here?
Answer: 10400 fluorescence intensity (a.u.)

Question: Which binding signal does the source give for “TTCTGATTTTCCATAATTCCATTAACTTTTGGAATTGCGCCGGAGTCACCTAGTGCAG” here?
Answer: 29700 fluorescence intensity (a.u.)

Question: With “CGCTAATCACTAGTTCTACATGCTAATGCAACAGCCTTTACGGAGTCACCTAGTGCAG” as the sequence, how does the binding signal read?
Answer: 6340 fluorescence intensity (a.u.)

Question: With “TCCGTAGGCGCCCGTGGCGCAGATCAAACTCGCACGCGCACGGAGTCACCTAGTGCAG” as the sequence, how does the binding signal read?
Answer: 49600 fluorescence intensity (a.u.)

Question: How did the binding signal turn out when “TTTAATTGGATTCATAAATAGAGTTGGTGTTGTGAAAACACGGAGTCACCTAGTGCAG” was run?
Answer: 26800 fluorescence intensity (a.u.)

Question: “TTTGCCCTTAATTTGTATACAACTATACACTAGAAAAGAGCGGAGTCACCTAGTGCAG” was tested. Which binding signal did it give?
Answer: 12000 fluorescence intensity (a.u.)

Question: With “ATAATATGATTGCTTCGAATCGAACCGCTCCCCGCGTTGCCGGAGTCACCTAGTGCAG” as the sequence, how does the binding signal read?
Answer: 35400 fluorescence intensity (a.u.)

Question: How did the binding signal turn out when “ATTAATTCATTAATTAGTCGGATAAGGCCTATGAACAGTTCGGAGTCACCTAGTGCAG” was run?
Answer: 17700 fluorescence intensity (a.u.)

Question: “CATAAATATCATAATTTGTAGCTTCAATGCATTTCTAACACGGAGTCACCTAGTGCAG” was tested. Which binding signal did it give?
Answer: 7190 fluorescence intensity (a.u.)

Question: “GATGGCATCCCCGAGTGATTGAAAGAGTTTCCTCTCTCTTCGGAGTCACCTAGTGCAG” was tested. Which binding signal did it give?
Answer: 13000 fluorescence intensity (a.u.)

Question: For “ACAGAATTGGTGGTATATTGATAAACTCTAAAGGATGGGCCGGAGTCACCTAGTGCAG”, which binding signal is on record?
Answer: 12400 fluorescence intensity (a.u.)

Question: With “TGAAATTGGCCAAACAACTGAGGCATCATGTATACAAATTCGGAGTCACCTAGTGCAG” as the sequence, how does the binding signal read?
Answer: 3220 fluorescence intensity (a.u.)

Question: “CCTATCAATTTTATCTAACGGATTAGAAGAAAATTATCAACGGAGTCACCTAGTGCAG” was tested. Which binding signal did it give?
Answer: 11300 fluorescence intensity (a.u.)

Question: With “TGCTTGTAATTTCTATAAAATTAGCAGTATTTTGATGCTACGGAGTCACCTAGTGCAG” as the sequence, how does the binding signal read?
Answer: 9240 fluorescence intensity (a.u.)

Question: How did the binding signal turn out when “AGTACTAAATTAACTTAAAGTTAAGTTTTAAGATATTACACGGAGTCACCTAGTGCAG” was run?
Answer: 5480 fluorescence intensity (a.u.)

Question: With “CCGTAACCGTATTAACCAGTTATTAACCACCACCTCCTCCCGGAGTCACCTAGTGCAG” as the sequence, how does the binding signal read?
Answer: 4340 fluorescence intensity (a.u.)

Question: “ACTTTGAATAGATTACTAATCTGCACTGTCAAGAACAACACGGAGTCACCTAGTGCAG” was tested. Which binding signal did it give?
Answer: 14500 fluorescence intensity (a.u.)

Question: “AAGCAATGACTGTAAACATATAGATCGTGGTTTTATTCTGCGGAGTCACCTAGTGCAG” was tested. Which binding signal did it give?
Answer: 4670 fluorescence intensity (a.u.)
